In this experiment the test system is NCI-H322M lung. Nature of the experiment: NCI-60 cell line screen, 48 h.

The source of these data is PubChem BioAssay (NCI).

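Dose response: 5 concentrations. Exposure: 48 h. Format: 96-well plates. Endpoint: linear interpolation; highest concentration if not reached. GI50 = concentration required for 50% inhibition of growth. TGI marks complete inhibition of growth.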

`COc1ccc(OC)c(N(CN2C(=O)CCC2C(=O)O)C(C)=O)c1` (stereo not drawn) displayed a TGI greater than 100 µM.
On to `O=C(/C=C/c1ccc(Oc2cc(C(=O)/C=C/c3ccc(O)cc3)c(O)cc2O)cc1)c1ccc(O)cc1O`, for which the TGI was determined as 20.8 µM.
With `C[CH2][Sn]([CH2]C)([O]C(=O)c1ccccc1OC)[O][Sn]([CH2]C)([CH2]C)[O]C(=O)c1ccccc1OC`, the GI50 was greater than 100 µM and the TGI is greater than 100 µM.
`COC(=O)c1cc2c(c3c1CC(Cc1ccccc1)C3=O)CCC2` (stereo not drawn): the TGI was greater than 100 µM.
`COc1ccc(CCC2c3cc(OC)c(OC)cc3CCN2C)cc1OC` (stereo not drawn) gave a TGI greater than 100 µM.
The same measure, in the same setting: the figure for `c1cnc2c(c1)ccc1cccnc12` is greater than 100 µM; for `ClCCN(CCCl)c1ccc(/C=N/Nc2ccnc3ccccc23)cc1` it is 2.78 µM; for `COC(=O)[C@]1(NC(=O)c2ccccc2)C[C@H]1C=O` it is greater than 100 µM.
Regarding `COc1cc2nc(-c3cc(F)ccc3O)nc(N[C@@H]3CNC[C@H]3C(C)(C)O)c2cc1OC`, the GI50 was 2.13 µM and the TGI worked out at 5.11 µM.
Regarding `CCOC(=O)C1(C(=O)OCC)[C@@H](c2ccccc2)C2=NO[C@@H]3CCC[C@H]1[C@H]23`, the TGI was greater than 100 µM.
As for `Oc1ccc(C(c2ccc(O)cc2)c2ccc(Br)cn2)cc1`, the GI50 is 0.249 µM and the TGI was 0.661 µM.
For `COc1cc(/C=C/C(=O)c2cccc(-n3cc(-c4ccc(Cl)cc4)[nH]c3=O)c2)cc(OC)c1OC` the same measures were 12.9 µM and greater than 100 µM.
With `C=CNC(=O)NC(=O)CSc1nnc(-c2ccccc2NC(=O)C(F)(F)F)c(=O)[nH]1`, the TGI was greater than 100 µM.
As for `Oc1c(I)cc(I)c2cccnc12`, the GI50 is 2.95 µM and the TGI was found to be 23 µM.
Take `CC(=O)NCc1cccc(C#Cc2cncnc2Nc2ccc(OCc3cccc(F)c3)c(Cl)c2)c1`: the GI50 is 3.57 µM and the TGI is greater than 21.2 µM.
On the same counts, the results for `Cc1ccc(-c2nc([P+](c3ccccc3)(c3ccccc3)c3ccccc3)c(S(=O)(=O)c3ccc(C)cc3)o2)cc1` are 3.18 µM and 12.6 µM.
`O=c1[nH]nc(Cc2ccccc2)n1C1CCCC1`: the TGI is greater than 100 µM.
The same measure, in the same setting: the figure for `COC(=O)[C@@]1(C(C)CC(=O)O)CCCCC1=O` (stereo partly drawn) is greater than 100 µM; for `NC1CC(=O)c2c1sc(Cl)c2Cl` (stereo not drawn) it is greater than 100 µM.
The same measure, in the same setting: to `Cc1cn(CCCCC2=NCCCN2)c(=O)[nH]c1=O` belongs greater than 65.5 µM.
Consider `COc1cc2c(cc1OC)-c1ncc3c(OC)c(OC)c(OC)cc3c1C2`, for which the GI50 is 3.59 µM and the TGI stood at 58 µM.
`Cn1c(-c2ccccc2)cc(-c2cccs2)c1-c1cccs1` showed a TGI greater than 100 µM.
Same read-out and setting: the figure for `c1cc2nnc1SCCCSc1ccc(nn1)SCCCS2` is greater than 100 µM; for `O=C(c1ccccc1)N(C(=O)c1ccccc1)c1nc(SCc2ccccc2)ns1` it is 97.2 µM.
The same measure, in the same setting: to `c1ccc2oc(-c3ccc(-c4nc5ccccc5o4)c4c3CC4)nc2c1` belongs greater than 100 µM.
Take `Cc1cc(N(CCCNc2ccnc3cc(Cl)ccc23)Cc2ccco2)nc(N2CCN(C)CC2)n1`: the GI50 is 2.65 µM and the TGI was 9.14 µM.
Take `CC1OC(OC2C(O)CC(OC3C(O)CC(OC4CCC5(C)C(CCC6C5CC(O)C5(C)C(C7=CC(=O)OC7)CCC65O)C4)OC3C)OC2C)CC(O)C1O` (stereo not drawn): the GI50 is 0.0489 µM and the TGI is 0.226 µM.
Compound `O[C@@]12Cc3c([nH]c4ccccc34)[C@@H]3Oc4cccc5c4[C@@]31CCN(CC1CC1)[C@@H]2C5` returned a TGI of 69.8 µM.
As to `COC1C(O)C(CO)OC(OC2C(O)COC(OC3C(C)OC(OC4C(O[C@H]5CC[C@@]6(C)C(CC=C7[C@H]6CCC68C(=O)O[C@@](C)(CCCC(C)C)[C@H]6[C@@H](OC(C)=O)C[C@@]78C)C5(C)C)OCC(OS(=O)(=O)O)C4O)C(OC4OCC(O)C(O)C4O)C3O)C2O)C1O` (stereo partly drawn), the GI50 was 0.116 µM and the TGI stood at 0.309 µM.
As for `CC(C)=CCN1CC(C)C(=O)Nc2ccccc21` (stereo not drawn), the TGI was greater than 100 µM.
Still for that read-out and setting: the figure for `O=[N+]([O-])c1ccc(-c2nc3ccc(Cl)cc3[nH]2)cc1` is greater than 100 µM.
The same measure, in the same setting: the figure for `O=C(c1cccs1)N(C(=S)OCCOc1ccccc1)c1ccccc1` is greater than 100 µM.
